Assay results from patent US20240400644A1 (ACROIMMUNE GUANGZHOU BIOTECH, published 2024).

How the values were obtained:
HMGB1-His tag protein [1] = molecular target: T1, HMGB1-His tag protein (human, UniProt P09429 1-215, limits assumed); assay: ELISA: HMGB1-His coated at 0.1 µg/mL, Fc-fusion protein titrated 2-fold in buffer with 1 mM MgCl2 and 1 mM CaCl2, HRP goat anti-human IgG-Fc, TMB
T1 construct: Bought, HEK293 cell derived; also called human HMGB1; HMGB1-His protein; not shown: His tag
T1 sequence (looked up): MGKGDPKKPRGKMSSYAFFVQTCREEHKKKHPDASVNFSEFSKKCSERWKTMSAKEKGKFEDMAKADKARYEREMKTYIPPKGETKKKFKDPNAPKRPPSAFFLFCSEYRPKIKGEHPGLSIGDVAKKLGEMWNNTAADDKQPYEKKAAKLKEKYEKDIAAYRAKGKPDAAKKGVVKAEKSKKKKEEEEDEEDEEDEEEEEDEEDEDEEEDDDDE
Method: Briefly, a 96-well plate was coated with recombinant GST-Siglec-10 fusion protein (at concentration of 200 ng/ml). After washing and blocking, the plate was incubated with a two-fold serial dilution of different versions of AI-071-Fc protein or AI-071 control sample (all starting at 1.5 mg/mL), the bound protein was then detected by adding HRP-labeled goat anti-human (1:1000, Invitrogen, A18829), followed by the addition of tetramethylbenzidin (TMB) substrates. […] Briefly, a 96-well plate was coated with 0.1 μg/mL HMGB1-His tag protein (AcroBiosystems, HM1-H5220, HEK293 cell derived). The plate was then incubated with 2-fold serial dilutions of different version of AI-07-Fc protein (all starting at 1.5 mg/mL, in PBST-1% BSA solution containing 1 mM MgCl2 and 1 mM CaCl2). The bound protein was then detected by adding HRP-labeled goat anti-human IgG-Fc antibody (1:1000, Invitrogen, A18829), followed by the addition of tetramethylbenzidin (TMB) substrates.
FIG. 20A-20B show the binding of 3 different other versions of AI-071-Fc protein (AI-071-X, AI-71-Y and AI-071-Z), to human Siglec-10 or HMGB1 in ELISA. Each of these three AI-071-Fc protein variants (AI-071-X, AI-71-Y and AI-071-Z) containing 5 copies of a 12 AA-long peptide derived from different portions of CD24 other than 071core peptide. Same as in FIG. 19, AI-071 fusion protein was included in the assay and served as a control sample for comparison. […] The ELISA method and sample preparation are same as that in FIG. 19A. […] The ELISA method and sample preparation are same as that in FIG. 19B.

HMGB1-His tag protein [2] = molecular target: T1, HMGB1-His tag protein; assay: as above; remark: listed apart in the source
Method: FIG. 19A-19B show the binding of 2 different versions of AI-071-Fc protein containing either 1 copy of 071core (AI-071-1copy) or 2 copies of 071core (AI-071-2copies) to human Siglec-10 or HMGB1 in ELISA. A control sample of AI-071 fusion protein was included in the assay and served for comparison. […] Briefly, a 96-well plate was coated with recombinant GST-Siglec-10 fusion protein (at concentration of 200 ng/ml). After washing and blocking, the plate was incubated with a two-fold serial dilution of different versions of AI-071-Fc protein or AI-071 control sample (all starting at 1.5 mg/mL), the bound protein was then detected by adding HRP-labeled goat anti-human (1:1000, Invitrogen, A18829), followed by the addition of tetramethylbenzidin (TMB) substrates. […] Briefly, a 96-well plate was coated with 0.1 μg/mL HMGB1-His tag protein (AcroBiosystems, HM1-H5220, HEK293 cell derived). The plate was then incubated with 2-fold serial dilutions of different version of AI-07-Fc protein (all starting at 1.5 mg/mL, in PBST-1% BSA solution containing 1 mM MgCl2 and 1 mM CaCl2). The bound protein was then detected by adding HRP-labeled goat anti-human IgG-Fc antibody (1:1000, Invitrogen, A18829), followed by the addition of tetramethylbenzidin (TMB) substrates.

B1: AI-071-Y (Fc fusion)
chain: APNPTNATTKAAAPNPTNATTKAAAPNPTNATTKAAAPNPTNATTKAAAPNPTNATTKAA[human IgG1 Fc skipped]
modifications: glycosylated as produced in CHO cells; sites not mapped
notes: Signal peptide left out; also called AI-71-Y
- binding result (HMGB1-His tag protein [1]): binds

Binder: STSNSGLAPNPTSTSNSGLAPNPT[human IgG1 Fc skipped] (Fc fusion) [AI-071-2copies]
- binding result (HMGB1-His tag protein [2]): binds

B2: AI-071-Z (Fc fusion)
chain: GLAPNPTNATTKGLAPNPTNATTKGLAPNPTNATTKGLAPNPTNATTKGLAPNPTNATTK[human IgG1 Fc skipped]
notes: Signal peptide left out
- binding result (HMGB1-His tag protein [1]): binds

B3: AI-071-X (Fc fusion)
chain: SETTTGTSSNSSSETTTGTSSNSSSETTTGTSSNSSSETTTGTSSNSSSETTTGTSSNSS[human IgG1 Fc skipped]
modifications: glycosylated as produced in CHO cells; sites not mapped
- binding result (HMGB1-His tag protein [1]): binds

Read-outs that look alike come from different tables or passages of the source.
